# Assay results taken from the supplement of paper PMC8728848.
# The other results are listed elsewhere or left out.
# B1: AT1G15820(NC) (Arabidopsis thaliana) (protein)
# chain: MAMAVSGAVLSGLGSSFLTGGKRGATALASGVGDAIAPFSFGSLLGTQLLLMGWVESKRWVDFFNPDSQSVEWATPWSKTAENFANYTGDQGYPGGRFFDPLGLAGKNRDGVYEPDFEKLERLKLAEIKHSRLAMVAMLIFYFEAGQGKTPLGALGL
# Assays:
# Experiment in all cases: glycan array binding signal (z-score within array); higher = stronger binding
# Settings in all cases: glycan notation: IUPAC condensed, linker removed
# GlcNAc(b1-3)Gal(b1-4)Glc = biological target: GlcNAc(b1-3)Gal(b1-4)Glc
# In short: (§1)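 From the Consortium for Functional Glycomics database, 3228 arrays were curated, keeping only those whose protein sequence was available. Binding is given as a within-array Z-score averaged across arrays sharing a protein sequence and across linkers. Negative Z-scores can be read as non-binding.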
# [1] = biological target: GlcNAc(b1-3)Gal(b1-4)GlcNAc
# In short: as §1
# [2] = biological target: GlcNAc(b1-3)Gal(b1-4)GlcNAc(b1-2)Man(a1-3)[GlcNAc(b1-3)Gal(b1-4)GlcNAc(b1-2)Man(a1-6)]Man(b1-4)GlcNAc(b1-4)GlcNAc
# In short: as §1
# [3] = biological target: GlcNAc(b1-3)Gal(b1-4)GlcNAc(b1-2)Man(a1-3)[GlcNAc(b1-3)Gal(b1-4)GlcNAc(b1-2)Man(a1-6)]Man(b1-4)GlcNAc(b1-4)[Fuc(a1-6)]GlcNAc
# In short: as §1
# [4] = biological target: GlcNAc(b1-3)Gal(b1-4)GlcNAc(b1-2)[GlcNAc(b1-3)Gal(b1-4)GlcNAc(b1-6)]Man(a1-6)[GlcNAc(b1-3)Gal(b1-4)GlcNAc(b1-2)Man(a1-3)]Man(b1-4)GlcNAc(b1-4)GlcNAc
# In short: as §1
# [5] = biological target: GlcNAc(b1-3)Gal(b1-4)GlcNAc(b1-3)Gal(b1-4)GlcNAc
# In short: as §1
# [6] = biological target: GlcNAc(b1-3)Gal(b1-4)GlcNAc(b1-3)Gal(b1-4)GlcNAc(b1-2)Man(a1-3)[GlcNAc(b1-3)Gal(b1-4)GlcNAc(b1-3)Gal(b1-4)GlcNAc(b1-2)Man(a1-6)]Man(b1-4)GlcNAc(b1-4)GlcNAc
# In short: as §1
# [7] = biological target: GlcNAc(b1-3)Gal(b1-4)GlcNAc(b1-3)Gal(b1-4)GlcNAc(b1-2)Man(a1-3)[GlcNAc(b1-3)Gal(b1-4)GlcNAc(b1-3)Gal(b1-4)GlcNAc(b1-2)Man(a1-6)]Man(b1-4)GlcNAc(b1-4)[Fuc(a1-6)]GlcNAc
# In short: as §1
# [8] = biological target: GlcNAc(b1-3)Gal(b1-4)GlcNAc(b1-3)Gal(b1-4)GlcNAc(b1-2)[GlcNAc(b1-3)Gal(b1-4)GlcNAc(b1-3)Gal(b1-4)GlcNAc(b1-6)]Man(a1-6)[GlcNAc(b1-3)Gal(b1-4)GlcNAc(b1-3)Gal(b1-4)GlcNAc(b1-2)Man(a1-3)]Man(b1-4)GlcNAc(b1-4)[Fuc(a1-6)]GlcNAc
# In short: as §1
# [9] = biological target: GlcNAc(b1-3)Gal(b1-4)GlcNAc(b1-3)Gal(b1-4)GlcNAc(b1-3)Gal(b1-4)GlcNAc(b1-2)Man(a1-3)[GlcNAc(b1-3)Gal(b1-4)GlcNAc(b1-3)Gal(b1-4)GlcNAc(b1-3)Gal(b1-4)GlcNAc(b1-2)Man(a1-6)]Man(b1-4)GlcNAc(b1-4)GlcNAc
# In short: as §1
# [10] = biological target: GlcNAc(b1-3)Gal(b1-4)GlcNAc(b1-3)Gal(b1-4)GlcNAc(b1-3)Gal(b1-4)GlcNAc(b1-2)Man(a1-3)[GlcNAc(b1-3)Gal(b1-4)GlcNAc(b1-3)Gal(b1-4)GlcNAc(b1-3)Gal(b1-4)GlcNAc(b1-2)Man(a1-6)]Man(b1-4)GlcNAc(b1-4)[Fuc(a1-6)]GlcNAc
# In short: as §1
# [11] = biological target: GlcNAc(b1-3)Gal(b1-4)GlcNAc(b1-3)Gal(b1-4)GlcNAc(b1-3)Gal(b1-4)GlcNAc(b1-2)[GlcNAc(b1-3)Gal(b1-4)GlcNAc(b1-3)Gal(b1-4)GlcNAc(b1-3)Gal(b1-4)GlcNAc(b1-6)]Man(a1-6)[GlcNAc(b1-3)Gal(b1-4)GlcNAc(b1-3)Gal(b1-4)GlcNAc(b1-3)Gal(b1-4)GlcNAc(b1-2)Man(a1-3)]Man(b1-4)GlcNAc(b1-4)[Fuc(a1-6)]GlcNAc
# In short: as §1
# [12] = biological target: GlcNAc(b1-3)Gal(b1-4)GlcNAc(b1-3)Gal(b1-4)GlcNAc(b1-3)Gal(b1-4)GlcNAc(b1-3)Gal(b1-4)GlcNAc(b1-2)Man(a1-3)[GlcNAc(b1-3)Gal(b1-4)GlcNAc(b1-3)Gal(b1-4)GlcNAc(b1-3)Gal(b1-4)GlcNAc(b1-3)Gal(b1-4)GlcNAc(b1-2)Man(a1-6)]Man(b1-4)GlcNAc(b1-4)GlcNAc
# In short: as §1
# [13] = biological target: GlcNAc(b1-3)Gal(b1-4)GlcNAc(b1-3)Gal(b1-4)GlcNAc(b1-3)Gal(b1-4)GlcNAc(b1-3)Gal(b1-4)GlcNAc(b1-2)Man(a1-3)[GlcNAc(b1-3)Gal(b1-4)GlcNAc(b1-3)Gal(b1-4)GlcNAc(b1-3)Gal(b1-4)GlcNAc(b1-3)Gal(b1-4)GlcNAc(b1-2)Man(a1-6)]Man(b1-4)GlcNAc(b1-4)[Fuc(a1-6)]GlcNAc
# In short: as §1
# [14] = biological target: GlcNAc(b1-3)Gal(b1-4)GlcNAc(b1-3)Gal(b1-4)GlcNAc(b1-3)Gal(b1-4)GlcNAc(b1-3)Gal(b1-4)GlcNAc(b1-2)[GlcNAc(b1-3)Gal(b1-4)GlcNAc(b1-3)Gal(b1-4)GlcNAc(b1-3)Gal(b1-4)GlcNAc(b1-3)Gal(b1-4)GlcNAc(b1-6)]Man(a1-6)[GlcNAc(b1-3)Gal(b1-4)GlcNAc(b1-3)Gal(b1-4)GlcNAc(b1-3)Gal(b1-4)GlcNAc(b1-3)Gal(b1-4)GlcNAc(b1-2)Man(a1-3)]Man(b1-4)GlcNAc(b1-4)[Fuc(a1-6)]GlcNAc
# In short: as §1
# [15] = biological target: GlcNAc(b1-3)Gal(b1-4)GlcNAc(b1-3)Gal(b1-4)GlcNAc(b1-3)GalNAc
# In short: as §1
# [16] = biological target: GlcNAc(b1-3)Gal(b1-4)GlcNAc(b1-3)GalNAc
# In short: as §1
# [17] = biological target: GlcNAc(b1-3)Gal(b1-4)GlcNAc(b1-3)[GlcNAc(b1-3)Gal(b1-4)GlcNAc(b1-3)]GalNAc
# In short: as §1
# [18] = biological target: GlcNAc(b1-3)Gal(b1-4)GlcNAc(b1-6)[Gal(b1-3)]GalNAc
# In short: as §1
# [19] = biological target: GlcNAc(b1-3)Gal(b1-4)GlcNAc(b1-6)[GlcNAc(b1-3)Gal(b1-3)]GalNAc
# In short: as §1
# [20] = biological target: GlcNAc(b1-3)Gal(b1-4)GlcNAc(b1-6)[GlcNAc(b1-3)]Gal(b1-4)GlcNAc
# In short: as §1
# GlcNAc(b1-3)GalNAc = biological target: GlcNAc(b1-3)GalNAc
# In short: as §1
# GlcNAc(b1-3)Man = biological target: GlcNAc(b1-3)Man
# In short: as §1
# [21] = biological target: GlcNAc(b1-3)[GlcNAc(b1-4)][GlcNAc(b1-6)]GlcNAc
# In short: as §1
# [22] = biological target: GlcNAc(b1-3)[GlcNAc(b1-6)]Gal(b1-4)GlcNAc
# In short: as §1
# [23] = biological target: GlcNAc(b1-3)[GlcNAc(b1-6)]GalNAc
# In short: as §1
# [24] = biological target: GlcNAc(b1-4)Gal(b1-4)GlcNAc
# In short: as §1
# GlcNAc(b1-4)GlcNAc = biological target: GlcNAc(b1-4)GlcNAc
# In short: as §1
# [25] = biological target: GlcNAc(b1-4)GlcNAc(b1-4)GlcNAc
# In short: as §1
# [26] = biological target: GlcNAc(b1-4)GlcNAc(b1-4)GlcNAc(b1-4)GlcNAc(b1-4)GlcNAc
# In short: as §1
# [27] = biological target: GlcNAc(b1-4)GlcNAc(b1-4)GlcNAc(b1-4)GlcNAc(b1-4)GlcNAc(b1-4)GlcNAc
# In short: as §1
# [28] = biological target: GlcNAc(b1-4)[GlcNAc(b1-6)]GalNAc
# In short: as §1
# [29] = biological target: GlcNAc(b1-6)Gal(b1-4)GlcNAc
# In short: as §1
# GlcNAc(b1-6)GalNAc = biological target: GlcNAc(b1-6)GalNAc
# In short: as §1
# [30] = biological target: GlcNAc6S(b1-3)Gal(b1-4)GlcNAc
# In short: as §1
# Kdn(a2-3)Gal(b1-3)GalNAc = biological target: Kdn(a2-3)Gal(b1-3)GalNAc
# In short: as §1
# Kdn(a2-3)Gal(b1-3)GlcNAc = biological target: Kdn(a2-3)Gal(b1-3)GlcNAc
# In short: as §1
# Kdn(a2-3)Gal(b1-4)Glc = biological target: Kdn(a2-3)Gal(b1-4)Glc
# In short: as §1
# Kdn(a2-3)Gal(b1-4)GlcNAc = biological target: Kdn(a2-3)Gal(b1-4)GlcNAc
# In short: as §1
# [31] = biological target: Kdn(a2-3)Gal(b1-4)[Fuc(a1-3)]GlcNAc
# In short: as §1
# Kdn(a2-6)Gal(b1-4)GlcNAc = biological target: Kdn(a2-6)Gal(b1-4)GlcNAc
# In short: as §1
# [32] = biological target: Man(a1-2)Man(a1-2)Man(a1-3)Man
# In short: as §1
# [33] = biological target: Man(a1-2)Man(a1-2)Man(a1-6)[Man(a1-3)]Man
# In short: as §1
# Man(a1-2)Man(a1-3)Man = biological target: Man(a1-2)Man(a1-3)Man
# In short: as §1
# [34] = biological target: Man(a1-2)Man(a1-3)[Man(a1-2)Man(a1-6)]Man
# In short: as §1
binder,measurement,setting,value
B1,glycan array binding signal (z-score),GlcNAc(b1-3)Gal(b1-4)Glc,-0.035
same,glycan array binding signal (z-score),[1],-0.443
same,glycan array binding signal (z-score),[2],-0.12
same,glycan array binding signal (z-score),[3],0.859
same,glycan array binding signal (z-score),[4],0.582
same,glycan array binding signal (z-score),[5],-0.359
same,glycan array binding signal (z-score),[6],0.73
same,glycan array binding signal (z-score),[7],2.99
same,glycan array binding signal (z-score),[8],-0.179
same,glycan array binding signal (z-score),[9],-0.268
same,glycan array binding signal (z-score),[10],1.6
same,glycan array binding signal (z-score),[11],1.05
same,glycan array binding signal (z-score),[12],0.65
same,glycan array binding signal (z-score),[13],0.078
same,glycan array binding signal (z-score),[14],0.02
same,glycan array binding signal (z-score),[15],-0.327
same,glycan array binding signal (z-score),[16],2.84
same,glycan array binding signal (z-score),[17],0.146
same,glycan array binding signal (z-score),[18],-0.119
same,glycan array binding signal (z-score),[19],-0.066
same,glycan array binding signal (z-score),[20],-0.162
same,glycan array binding signal (z-score),GlcNAc(b1-3)GalNAc,0.177
same,glycan array binding signal (z-score),GlcNAc(b1-3)Man,0.078
same,glycan array binding signal (z-score),[21],0.571
same,glycan array binding signal (z-score),[22],-0.619
same,glycan array binding signal (z-score),[23],-0.502
same,glycan array binding signal (z-score),[24],0.405
same,glycan array binding signal (z-score),GlcNAc(b1-4)GlcNAc,-0.216
same,glycan array binding signal (z-score),[25],-0.628
same,glycan array binding signal (z-score),[26],4.7
same,glycan array binding signal (z-score),[27],-0.28
same,glycan array binding signal (z-score),[28],1.03
same,glycan array binding signal (z-score),[29],-0.583
same,glycan array binding signal (z-score),GlcNAc(b1-6)GalNAc,-0.166
same,glycan array binding signal (z-score),[30],-0.58
same,glycan array binding signal (z-score),Kdn(a2-3)Gal(b1-3)GalNAc,0.004
same,glycan array binding signal (z-score),Kdn(a2-3)Gal(b1-3)GlcNAc,-0.204
same,glycan array binding signal (z-score),Kdn(a2-3)Gal(b1-4)Glc,0.303
same,glycan array binding signal (z-score),Kdn(a2-3)Gal(b1-4)GlcNAc,-0.049
same,glycan array binding signal (z-score),[31],0.012
same,glycan array binding signal (z-score),Kdn(a2-6)Gal(b1-4)GlcNAc,0.229
same,glycan array binding signal (z-score),[32],-0.884
same,glycan array binding signal (z-score),[33],0.045
same,glycan array binding signal (z-score),Man(a1-2)Man(a1-3)Man,-0.501
same,glycan array binding signal (z-score),[34],-0.617
